According to the supplement of paper PMC6089552:
Out of some 3,200 compounds screened, about 300 (9.4%) showed activity. The entries are a selection whose mix differs from that of the whole data set.

System: A673/TR/shEF
Test: cell viability (LOESS-normalised, relative to median of negative controls) (log2 ratio); higher = more viable cells (less compound effect), active = hit call of the paper (over 3 MAD below the median)
Details: treatment time: 72 h
In short: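 A673/TR/shEF Ewing sarcoma cells were plated at 1,500 per well in 384-well plates and cultured with or without doxycycline, added 24 h before compounds, to induce EWS-FLI1 shRNA knockdown. Library compounds at two or more concentrations, alongside DMSO controls, were applied for three days. Cell viability was measured by CellTiter-Glo luminescence on an Envision reader. Readings were LOESS-corrected per plate, divided by the median of negative controls and log2-transformed, and hits were wells lying at least three median absolute deviations from the median of all screened wells.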

[1] = 0.25 µM, library screen: screen1, EWS-FLI1 expression: high (no doxycycline)
[2] = 0.25 µM, library screen: screen1, EWS-FLI1 expression: low (doxycycline-induced shRNA knockdown)
[3] = 2.5 µM, library screen: screen1, EWS-FLI1 expression: high (no doxycycline)
[4] = 2.5 µM, library screen: screen1, EWS-FLI1 expression: low (doxycycline-induced shRNA knockdown)
[5] = 2.5 µM, library screen: screen2, EWS-FLI1 expression: high (no doxycycline)
[6] = 0.103 µM, library screen: screen3, EWS-FLI1 expression: high (no doxycycline)
[7] = 0.103 µM, library screen: screen3, EWS-FLI1 expression: low (doxycycline-induced shRNA knockdown)
[8] = 0.308 µM, library screen: screen3, EWS-FLI1 expression: high (no doxycycline)
[9] = 0.308 µM, library screen: screen3, EWS-FLI1 expression: low (doxycycline-induced shRNA knockdown)
[10] = 0.926 µM, library screen: screen3, EWS-FLI1 expression: high (no doxycycline)
[11] = 0.926 µM, library screen: screen3, EWS-FLI1 expression: low (doxycycline-induced shRNA knockdown)
[12] = 2.8 µM, library screen: screen3, EWS-FLI1 expression: high (no doxycycline)
[13] = 2.8 µM, library screen: screen3, EWS-FLI1 expression: low (doxycycline-induced shRNA knockdown)
[14] = 8.3 µM, library screen: screen3, EWS-FLI1 expression: high (no doxycycline)
[15] = 8.3 µM, library screen: screen3, EWS-FLI1 expression: low (doxycycline-induced shRNA knockdown)
[16] = 25 µM, library screen: screen3, EWS-FLI1 expression: high (no doxycycline)
[17] = 25 µM, library screen: screen3, EWS-FLI1 expression: low (doxycycline-induced shRNA knockdown)
[18] = 0.25 µM, library screen: screen2, EWS-FLI1 expression: high (no doxycycline)
[19] = 0.25 µM, library screen: screen2, EWS-FLI1 expression: low (doxycycline-induced shRNA knockdown)
[20] = 2.5 µM, library screen: screen2, EWS-FLI1 expression: low (doxycycline-induced shRNA knockdown)

Measured: cell viability (log2)

NCC(O)CC(=O)O (stereo not given)
inactive: [1] 0.135 | [2] 0.0702 | [3] 0.0842 | [4] 0.0568

O=C(/C=C/c1ccc(O)c(O)c1)OCCc1ccccc1
active: [5] -0.129

COc1c2occc2c(OC)c2c(=O)cc(C)oc12
inactive: [1] 0.0471 | [2] -0.0285 | [3] 0.104 | [4] -0.00533

O=C1CC(Nc2ccc(N3CCOCC3)cc2)C(=O)N1c1cccc(C(F)(F)F)c1 (stereo not given)
inactive: [1] 0.0229 | [2] 0.0506 | [3] 0.0998 | [4] 0.15

C1CNCCN1
inactive: [1] 0.0889 | [2] 0.0996 | [3] 0.0462 | [4] 0.137

Nc1cc(C(Cl)=C(Cl)Cl)c(S(N)(=O)=O)cc1S(N)(=O)=O
inactive: [6] -0.128 | [7] 0.0273 | [8] -0.0348 | [9] 0.0538 | [10] -0.00415 | [11] 0.0607 | [12] 0.0637 | [13] 0.0856 | [14] 0.0769 | [15] 0.073 | [16] 0.0282 | [17] 0.11

COc1ccc(CCN(C)CCCC(C#N)(c2cc(OC)c(OC)c(OC)c2)C(C)C)cc1OC (stereo not given)
inactive: [18] 0.0904 | [19] 0.0375 | [5] 0.0541 | [20] 0.0521

CC[C@H](C)C(=O)O[C@H]1CCC=C2C=C[C@H](C)[C@H](CC[C@@H]3C[C@@H](O)CC(=O)O3)[C@H]21
inactive: [1] 0.147 | [2] 0.00215 | [18] 0.167 | [19] 0.108 | [3] 0.0603 | [4] -0.0998 | [5] 0.145 | [20] 0.0674

COC(=O)/C=C/C(C)=C\C=C\C(C)=C\C=C\C=C(C)\C=C\C=C(C)\C=C\C(=O)O
inactive: [1] -0.0751 | [2] 0.068 | [3] 0.0815 | [4] 0.0619

CC(=O)[C@]1(O)Cc2c(O)c3c(c(O)c2[C@@H](O[C@H]2C[C@H](N)[C@H](O)[C@H](C)O2)C1)C(=O)c1ccccc1C3=O
active: [18] -2.37 | [19] -0.307 | [5] -3.12 | [20] -0.984

O=c1oc2ccccc2c(O)c1Cc1c(O)c2ccccc2oc1=O
inactive: [1] 0.0318 | [2] 0.0542 | [3] 0.13 | [4] 0.103

CN1CCN(CCCN2c3ccccc3Sc3ccc(Cl)cc32)CC1
inactive: [1] 0.0634 | [2] 0.114 | [18] 0.165 | [19] 0.0998 | [3] 0.163 | [4] 0.21 | [5] 0.085 | [20] 0.0319

N=c1c[n+](N2CCOCC2)[n-]o1
inactive: [18] 0.148 | [19] 0.115 | [5] 0.0561 | [20] 0.0199

Nc1nc(=S)c2[nH]cnc2[nH]1
active: [3] -0.318 | [5] -0.33 | [14] -0.323 | 25 µM, library screen: screen2, EWS-FLI1 expression: high (no doxycycline) -0.96 | 25 µM, library screen: screen2, EWS-FLI1 expression: low (doxycycline-induced shRNA knockdown) -0.163 | [16] -0.834
inactive: 0.025 µM, library screen: screen2, EWS-FLI1 expression: high (no doxycycline) 0.0835 | 0.025 µM, library screen: screen2, EWS-FLI1 expression: low (doxycycline-induced shRNA knockdown) 0.0155 | [6] 0.132 | [7] 0.0451 | [1] 0.0575 | [2] 0.137 | [18] 0.0679 | [19] 0.0691 | [8] 0.156 | [9] 0.137 | [10] 0.118 | [11] 0.102 | [4] 0.0456 | [20] -0.0263 | [12] 0.0258 | [13] 0.111 | [15] 0.0181 | [17] 0.027

O=C1c2ccccc2C(=O)c2c1ccc(O)c2O
inactive: [1] 0.112 | [2] -0.0153 | [3] 0.111 | [4] 0.0328

Cc1c(C)c2c(c(C)c1O)CCC(C)(CN1CCN(c3cc(N4CCCC4)nc(N4CCCC4)n3)CC1)O2 (stereo not given)
inactive: [18] 0.267 | [19] 0.0318 | [5] 0.186 | [20] 0.0468

CCCCc1nc(Cl)c(CO)n1Cc1ccc(-c2ccccc2-c2nn[nH]n2)cc1
inactive: [1] 0.109 | [2] -5.6e-05 | [3] 0.046 | [4] 0.108

NCCCCNS(=O)(=O)c1cccc2c(Cl)cccc12
active: [18] -0.151

COc1cc(CN2CCN(Cc3cccnc3)CC2)cc(OC)c1OC
inactive: [1] 0.0843 | [2] 0.0394 | [3] 0.126 | [4] 0.144

C[C@@H]1O[C@@H](O[C@H]2[C@H](Oc3cc(O)c4c(=O)cc(-c5ccc(O)cc5)oc4c3)O[C@H](CO)[C@@H](O)[C@@H]2O)[C@H](O)[C@H](O)[C@H]1O
inactive: [1] 0.0335 | [2] 0.0365 | [3] 0.122 | [4] 0.0962

COc1cc(CN2CCN(Cc3ccco3)CC2)cc(OC)c1
inactive: [1] -0.0146 | [2] 0.0935 | [3] 0.0118 | [4] 0.0977

Nc1nc2ccc(Cl)cc2c2nc(-c3ccco3)nn12
inactive: [18] 0.0906 | [19] 0.0622 | [5] 0.0284 | [20] 0.0389

OC1C(O)C(O)C(O)C(O)C1O (stereo not given)
inactive: [1] 0.0555 | [2] 0.00677 | [3] 0.089 | [4] 0.0209

CCC(C)N(C)C(=O)c1cc2ccccc2c(-c2ccccc2Cl)n1 (stereo not given)
inactive: [18] 0.179 | [19] 0.0729 | [5] 0.0258 | [20] 0.194

Cc1c(N(C)CS(=O)(=O)O)c(=O)n(-c2ccccc2)n1C
inactive: [1] 0.134 | [2] 0.0871 | [3] 0.0768 | [4] 0.151

C[C@@H]1CCN(C(=O)CC#N)C[C@@H]1N(C)c1ncnc2[nH]ccc12
inactive: [6] -0.0507 | [7] 0.00355 | [8] -0.0226 | [9] 0.0313 | [10] 0.00705 | [11] 0.0526 | [12] 0.0331 | [13] 0.0539 | [14] 0.0415 | [15] 0.0389 | [16] 0.0334 | [17] -0.0228

CC(NCCC(c1ccccc1)c1ccccc1)c1ccccc1 (stereo not given)
inactive: [1] 0.0634 | [2] 0.0619 | [3] 0.136 | [4] 0.117

NCCCCC(N)C(=O)NC(Cc1c[nH]c2ccccc12)C(=O)NC(CCCCN)C(=O)O (stereo not given)
inactive: [1] 0.0147 | [2] 0.0512 | [3] 0.141 | [4] 0.0544

CN1CCN(CCCN2c3ccccc3Sc3ccc(C(F)(F)F)cc32)CC1
inactive: [1] 0.0503 | [2] 0.0773 | [18] 0.145 | [19] 0.07 | [3] 0.188 | [4] 0.156 | [5] 0.154 | [20] 0.0393

COC(=O)Nc1nc2ccc(C(=O)c3cccs3)cc2[nH]1
active: [1] -0.83 | [2] -0.22 | [18] -1.12 | [19] -0.105 | [3] -3.46 | [4] -1.25 | [5] -2.04 | [20] -0.699

Nc1ncc2[nH]cnc2n1
active: [3] -0.0954

COc1ccc(OC)c(C(O)CNC(=O)CN)c1 (stereo not given)
inactive: [1] 0.129 | [2] 0.155 | [3] 0.0539 | [4] 0.125

C=CC(=O)Nc1cc2c(Nc3ccc(F)c(Cl)c3)ncnc2cc1OCCCN1CCOCC1
active: [14] -0.188 | [16] -0.199 | [17] -0.281

COC(=O)C[C@H]1C(C)(C)C2(O)OC34CC2C(=O)[C@]1(C)C3CC[C@]1(C)C4=CC(=O)O[C@H]1c1ccoc1 (stereo not given in full)
inactive: [1] -0.0307 | [2] -0.0369 | [3] 0.093 | [4] 0.0811

CNC[C@H](O)c1ccc(O)c(O)c1
inactive: [6] 0.00528 | [7] 0.0495 | [1] 0.106 | [2] 0.0509 | [18] 0.169 | [19] 0.0474 | [8] 0.079 | [9] 0.091 | [10] 0.0631 | [11] 0.0893 | [3] 0.183 | [4] 0.209 | [5] 0.122 | [20] 0.099 | [12] 0.0488 | [13] 0.0524 | [14] -0.00361 | [15] 0.0638 | [16] 0.098 | [17] 0.00995

COc1ccc(OC)c(C2NC(=O)NC(C)=C2C(=O)Nc2ccccc2Cl)c1 (stereo not given)
inactive: [1] 0.0793 | [2] 0.107 | [3] 0.0921 | [4] 0.116

OC(CNCC(O)C1CCc2cc(F)ccc2O1)C1CCc2cc(F)ccc2O1 (stereo not given)
inactive: [6] 0.0679 | [7] 0.105 | [8] 0.0226 | [9] 0.0787 | [10] 0.018 | [11] 0.0333 | [12] 0.0512 | [13] 0.073 | [14] 0.0254 | [15] 0.116 | [16] -0.073 | [17] -0.0764

Cc1ccccc1N1OC2C(=O)N(Cc3ccccc3)C(=O)C2C1c1ccc(F)cc1 (stereo not given)
inactive: [1] 0.112 | [2] -0.00916 | [3] 0.0853 | [4] -0.0466

O=c1[nH]c2cc([N+](=O)[O-])c([N+](=O)[O-])cc2[nH]c1=O
inactive: [18] 0.13 | [19] 0.0919 | [5] 0.164 | [20] 0.101

O=C(CCc1ccc(O)cc1)c1c(O)cc(O)cc1O
inactive: [1] 0.0445 | [2] 0.00928 | [18] 0.211 | [19] 0.0442 | [3] 0.117 | [4] 0.0976 | [5] 0.201 | [20] 0.0347
